# PMC4336329 (PLoS ONE, 2015)
# Among all 310,000 compounds or so, about 14,000 (4.5%) showed an effect of 50% or more. Effects have a minus sign here. This is one part of the list.
# Molecular target: human ether-à-go-go-related gene (hERG) potassium channel (human, UniProt Q12809)
# Test: primary screen, population patch clamp on CHO cells stably expressing hERG
# 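Note: peak tail current of the secondary pulse compared with the same well before compound.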
# Sequence of human ether-à-go-go-related gene (hERG) potassium channel (Q12809 whole entry, looked up): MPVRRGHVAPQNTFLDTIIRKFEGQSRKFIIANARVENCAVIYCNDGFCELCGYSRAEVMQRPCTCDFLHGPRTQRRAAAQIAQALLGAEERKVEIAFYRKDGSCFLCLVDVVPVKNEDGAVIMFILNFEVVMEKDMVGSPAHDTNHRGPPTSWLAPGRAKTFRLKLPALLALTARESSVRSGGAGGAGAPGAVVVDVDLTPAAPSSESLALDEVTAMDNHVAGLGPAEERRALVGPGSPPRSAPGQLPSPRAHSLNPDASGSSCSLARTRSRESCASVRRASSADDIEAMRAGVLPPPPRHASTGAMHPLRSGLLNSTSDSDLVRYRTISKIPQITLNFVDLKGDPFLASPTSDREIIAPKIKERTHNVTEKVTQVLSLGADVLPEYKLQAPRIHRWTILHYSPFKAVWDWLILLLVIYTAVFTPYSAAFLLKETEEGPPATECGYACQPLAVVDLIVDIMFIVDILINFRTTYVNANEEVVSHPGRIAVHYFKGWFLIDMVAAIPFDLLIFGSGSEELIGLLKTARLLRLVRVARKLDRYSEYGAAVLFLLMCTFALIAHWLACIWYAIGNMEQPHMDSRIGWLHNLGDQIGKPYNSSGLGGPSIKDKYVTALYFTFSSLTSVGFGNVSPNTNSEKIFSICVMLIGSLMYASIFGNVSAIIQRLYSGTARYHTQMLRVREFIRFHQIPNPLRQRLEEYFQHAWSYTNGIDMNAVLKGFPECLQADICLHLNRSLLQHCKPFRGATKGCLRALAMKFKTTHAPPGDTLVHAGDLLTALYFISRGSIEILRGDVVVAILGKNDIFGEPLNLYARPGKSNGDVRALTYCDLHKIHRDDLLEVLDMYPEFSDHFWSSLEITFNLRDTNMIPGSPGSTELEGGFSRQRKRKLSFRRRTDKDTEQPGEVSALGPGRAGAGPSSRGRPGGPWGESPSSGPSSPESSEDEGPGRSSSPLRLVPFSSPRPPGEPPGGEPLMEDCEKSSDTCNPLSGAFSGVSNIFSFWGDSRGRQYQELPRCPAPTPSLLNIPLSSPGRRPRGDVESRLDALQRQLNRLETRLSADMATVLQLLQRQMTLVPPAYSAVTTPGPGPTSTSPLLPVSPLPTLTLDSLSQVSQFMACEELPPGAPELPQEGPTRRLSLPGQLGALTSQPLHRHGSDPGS
row,SMILES,"hERG current change (%, negative = inhibition) at 10uM"
1,O=c1[nH]c(=O)n(Cc2ccco2)c(O)c1C=NCc1cccs1,-15.3%
2,CCN(CC(=O)NCc1ccc(F)cc1)C(=O)/C=C/c1ccc(S(=O)(=O)N(CC)CC)cc1,-19.1%
3,COc1cccc(Cn2nnc(C(=O)NCc3ccc(F)cc3)c2N)c1,-2.25%
4,Cc1ccccc1C(=O)Nc1ccc2nc3n(c(=O)c2c1)CCC3,-9.1%
5,O=C(COC(=O)CCSc1ccccc1)NCc1ccccc1,10.2%
6,Cc1cccc(C(=O)NC2CCN(S(=O)(=O)c3ccccc3F)CC2)c1,10%
7,CC1Oc2ccccc2N(Cc2ccccc2Cl)C1=O (stereo not shown),-0.33%
8,CS(=O)(=O)c1ccccc1-c1nc(-c2cc(C(F)(F)F)cc(C(F)(F)F)c2)no1,4.06%
9,O=C(NCCc1ccco1)C(=O)NCC1OCCCN1S(=O)(=O)c1cc(F)ccc1F (stereo not shown),-8.36%
10,O=C(Cn1ncc2c1-c1ccccc1OC2)Nc1ccc(Cl)cn1,-17.1%
11,COc1ccc(S(=O)(=O)N(C)c2ccc(C(=O)N3CCCC3)cc2)cc1,13.4%
12,Cc1nnc(SCC(=O)NC(C)(C)C)n1NCc1ccc(N(C)C)cc1,19.1%
13,CCOc1ccc2nc(SCC(=O)NC3CC3)sc2c1,-0.114%
14,O=C1/C(=C/c2ccc(F)cc2)CCC1C1CCCC1 (stereo not shown),3.05%
15,Cc1ccc(S(=O)(=O)C(CCC(=O)c2ccc(Cl)cc2)C(N)=O)cc1 (stereo not shown),-28.9%
16,Cc1ccc(SCc2cc(=O)[nH]c(Nc3nc(C)c4ccccc4n3)n2)cc1,-5.24%
17,Cc1ncoc1C(=O)Nc1ccc2c(c1)OCCO2,-10.1%
18,Cn1cc(CN2CCC(n3nccc3NC(=O)CCCc3ccccc3)CC2)cn1,5.95%
19,Cc1cc(C)cc(N)c1,5.8%
20,CC1(C)C(=O)Nc2ccccc2N1C(=O)COC(=O)C12CC3CC(CC(O)(C3)C1)C2,14.1%
21,CCOc1ccc(-n2c(O)c(N=Nc3c(C)n(C)n(-c4ccccc4)c3=O)c(=O)[nH]c2=O)cc1,9.91%
22,CCOC(=O)CCSc1nc(C)cc(C(F)(F)F)c1C#N,2.56%

row,SMILES,"hERG current change (%, negative = inhibition) at 10uM"
1,Cc1ccc2onc(CC(=O)O)c2c1,20.7%
2,O=C(NNc1c2ccccc2nc2ccccc12)c1ccccc1O,15.2%
3,Cc1[nH]c2c(C(F)(F)F)cccc2c1CCN.Cl,-1.49%
4,CC(=O)c1cccc(NC(=O)/C(=C\c2cccnc2)NC(=O)c2ccco2)c1,-10.6%
5,Cc1ccc2nc(Nc3nc(CSc4nc5ccccc5s4)cc(=O)[nH]3)nc(C)c2c1,6.96%
6,CC(=O)CCSc1ncnc2sc(-c3ccccc3)cc12,15.5%
7,CC(C)n1cc(/C=C2/SC(=O)N(CC(=O)Nc3ccc4c(c3)OCO4)C2=O)c2ccccc21,-5.84%
8,Cc1ccc(N2C(=O)c3ccc(C(=O)N4CCN(Cc5ccccc5)CC4)cc3C2=O)cc1,-19%
9,O=C(CC(c1ccccc1)c1ccccc1)NCc1cccnc1,-12.7%
10,Cc1ccsc1C(=O)N1CCCC(CCC(=O)NCc2ccc(F)c(F)c2)C1 (stereo not shown),-15.3%
11,Cc1ccc(-n2c(C)cc(/C([O-])=C(/C(=S)Nc3ccc(F)c(Cl)c3)[n+]3ccccc3)c2C)cc1,0.314%
12,COCCN(C(=S)Nc1ccc(Cl)cc1OC)C1CCN(C(C)=O)CC1,-7.72%
13,Cc1ccc(C(=O)N2CCN(c3ncccn3)CC2)c(C)c1,12.1%
14,COc1ccc(NC(=O)Nc2c(C)noc2-c2ccccc2)cc1,15.2%
15,O=C(c1cc([N+](=O)[O-])ccc1N1CCCCC1)N1CCc2ccccc21,-17.3%
16,COCCn1c(SCC(=O)Nc2ccc(F)cc2)nc2c(oc3ccccc32)c1=O,-19.4%
17,COc1ccccc1C(=O)C1CCCN(C(=O)CCc2ccccn2)C1 (stereo not shown),-9.83%
18,COC(=O)c1ccc(NC(=O)C(=O)N2CCN(C(=S)Nc3cccc(C)c3C)CC2)cc1,8.47%
19,Cc1nc2cc(C(=O)NCc3ccc4c(c3)OCO4)ccc2n1-c1ccc(Br)cc1,-25.6%
20,CC(=O)N1N=C(c2ccco2)CC1c1cc2cc(C)ccc2nc1Cl (stereo not shown),-16.6%
21,NC(=O)CC(NC(=O)c1ccccc1)c1ccc(NCc2ccc(F)c(F)c2)c([N+](=O)[O-])c1 (stereo not shown),4.34%
22,C=CCC(NCc1ccccc1)c1ccco1 (stereo not shown),-2.74%

row,SMILES,"hERG current change (%, negative = inhibition) at 10uM"
1,O=C1CC(NC(=O)C(F)(F)F)c2cc3c(cc21)OCO3 (stereo not shown),8.97%
2,Cc1c(NC(=O)Nc2ccccc2)c(=O)n(-c2ccccc2)n1C,10.1%
3,O=C(c1ccc(=O)n(Cc2ccc(Cl)c(Cl)c2)c1)N1CCOCC1,-8.43%
4,CCN(Cc1cccs1)C(=O)CN1C(=O)NC(c2ccccc2)(c2ccccc2)C1=O,-32.5%
5,O=C(CCCc1ccccc1)Nc1nnc(C(F)(F)F)s1,-6.35%
6,CCc1cc(=O)oc2c3c(cc(OCC(=O)NC4CC4)c12)OC(C)(C)CC3,-13.9%
7,O=C(CSc1ccc(-c2ccccn2)nn1)Nc1ccc(F)c(F)c1,-36.4%
8,CCOc1ccc2nc(N3CCCC(C(=O)NCCCN4C(C)CCCC4C)C3)sc2c1 (stereo not shown),-54.7%
9,CCC(=O)NS(=O)(=O)c1cccnc1Nc1ccccc1Cl,10.4%
10,CCCC(=O)Nc1nnc(-c2ccco2)s1,2.55%
11,Cc1csc(SCC(=O)Nc2cc(S(=O)(=O)N(C)C)ccc2C)n1,1.81%
12,CC(=O)c1c(C)nc2sc3c(=N)n(N)cnc3c2c1-c1ccc(Cl)cc1,-14.1%
13,O=C(CN1C(=O)C2CC=CCC2C1=O)Nc1cc(C(F)(F)F)ccc1N1CCCC1 (stereo not shown),-24.6%
14,CCOC(=O)c1cnc2nc(SCc3ccccc3Cl)[nH]n2c1=O,16.9%
15,COc1ccc(-c2csc(NC(=O)CSc3nc4ccccc4c(=O)[nH]3)n2)cc1,19.6%
16,CC(=O)Nc1ccc(NC(=O)C2CC(=O)N(c3cccc(Cl)c3)C2)cc1 (stereo not shown),39.4%
17,Cc1ccc(C)c(Nc2c([N+](=O)[O-])cc(C(=O)N3CC(=O)Nc4ccccc43)cc2[N+](=O)[O-])c1,18.2%
18,Cc1oc2cc(O)ccc2c(=O)c1Oc1ccccc1,-10.2%
19,O[C@@H]([C@H](O)[C@H](O)CBr)[C@H](O)CBr,18%
20,CC(C)CC(=O)NC(=S)Nc1nc(-c2cccc3ccccc23)cs1,12.7%
21,O=C(Nc1ccc(Cn2cccn2)cc1)c1ccc(COc2cccc(Br)c2)cc1,9.7%
22,O=C(c1ccccc1F)N1CCN(c2ccc([N+](=O)[O-])c3ncccc23)CC1,-68.1%

row,SMILES,"hERG current change (%, negative = inhibition) at 10uM"
1,CC(C)(/C=N/O)/[N+]([O-])=C/c1ccccc1C(F)(F)F,-7.9%
2,CSc1ccccc1NC(=O)c1ccccc1,-1.44%
3,CCCOc1ccc(C(C)=O)cc1CSc1nc(O)cc(=O)[nH]1,14.4%
4,O=c1[nH]c2ccc(Cl)cc2c(=O)n1Cc1ccco1,20.1%
5,O=C(COc1ccccc1)Nc1ccc(Cl)cc1Cl,12.1%
6,CC(C)N1C(=O)S/C(=C/c2cccnc2)C1=O,8.88%
7,Cc1nn(C(C)C(=O)Nc2ccc(Cl)cn2)c(C)c1[N+](=O)[O-] (stereo not shown),-8.62%
8,CN(C)CCCN1C(=O)c2oc3ccc(F)cc3c(=O)c2C1c1cccnc1 (stereo not shown),2.36%
9,Cc1ccc(S(=O)(=O)N2CCOCC2)cc1C(=O)Nc1ccccc1N1CCOCC1,-12.8%
10,NC(=S)N/N=C\c1c2ccccc2cc2ccccc12,-16.3%
11,CN1C(=O)/C(=C/c2cc(C(C)(C)C)c(O)c(C(C)(C)C)c2)NC1=S,16.6%
12,Cc1ccc(NC(=O)CSc2nnc(-c3ccco3)c(-c3ccco3)n2)cc1,-64.9%
13,Cc1ccc(NC(=O)C2CC(=O)NC(N3CCc4ccccc43)=N2)cc1 (stereo not shown),-7.42%
14,Cc1cc(NN)nc2ccc(Cl)cc12,-4.71%
15,CCC(CC)C(=O)c1c[nH]c(C(=O)NCc2ccncc2)c1,2.49%
16,O=C(N/N=C/c1ccncc1)C1C2CCCCCCC21 (stereo not shown),-2.08%
17,CCCCNc1c(N)n(CC(C)C)c(=O)[nH]c1=O,-9.14%
18,Cc1nc2ccccn2c1C(=O)NCc1ccc2c(c1)OCO2,-0.471%
19,Cl.O=C(c1cc(S(=O)(=O)Nc2ccccc2F)c(Cl)cc1Cl)N1CCN(CCO)CC1,17.6%
20,O=C1c2ccccc2C(Nc2ccc(S(=O)(=O)N3CCCCC3)cc2)N1c1ccccn1 (stereo not shown),4.15%
21,COc1ccccc1CNS(=O)(=O)c1c(C)noc1C,13.2%
22,O=C(Cn1cc(C(F)(F)F)cc(Cl)c1=O)Nc1cccc(S(=O)(=O)N2CCCCC2)c1,4.9%
